# Article PMC7819943, “Rice protein-binding microarrays: a tool to detect cis-acting elements near promoter regions in rice”
# This is one part of the list.
# Target: T1, OsWOX13 (Oryza sativa, UniProt Q5QMM3 1-267)
# T1 sequence: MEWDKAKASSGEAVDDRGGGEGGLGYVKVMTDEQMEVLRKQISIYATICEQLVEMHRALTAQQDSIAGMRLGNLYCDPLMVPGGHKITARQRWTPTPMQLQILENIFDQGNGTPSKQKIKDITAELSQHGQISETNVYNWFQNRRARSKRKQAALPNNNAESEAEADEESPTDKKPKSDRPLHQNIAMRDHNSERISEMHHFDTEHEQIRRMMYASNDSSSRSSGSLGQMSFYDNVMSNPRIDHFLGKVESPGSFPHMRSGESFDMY
# Test: protein-binding microarray (RPBM); PBS, 2% BSA, 51.3 ng/ul salmon testes DNA, 50 uM zinc acetate, 200 nM TF, 25 C, 1 h; high values mean tight binding
# Conditions: protein: recombinant; tags: N-terminal polyhistidine and DsRed monomer fusion (pET32a); label: CyDye5-dUTP incorporated in the synthesized complementary strand; 3' TTTTT single-stranded linker to array surface; dsDNA, one strand shown
# Summary of the method: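 Transcription factors were each fused at the N-terminus to a polyhistidine tag plus DsRed and expressed in E. coli BL21-CodonPlus before Ni–NTA purification. Binding to a double-stranded custom Agilent array was carried out with 200 nM protein at 25 °C for 1 h in PBS, 2% BSA, salmon testes DNA and 50 µM zinc acetate. The binding signal is per-feature fluorescence intensity, in arbitrary units, on an Axon 4000B scanner.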
row,Sequence,binding signal
1,TTATATTGATTTTCGTATGATTTTGGACACATAAGTACCTCGGAGTCACCTAGTGCAG,38200 fluorescence intensity (a.u.)
2,ATAATTGGCAAGCGGACTGTGAGAACTGGAAAGGGATTCGCGGAGTCACCTAGTGCAG,33500 fluorescence intensity (a.u.)
3,TTAATTCCGAATTCCAATTATTTCTAGATTATATTCCTACCGGAGTCACCTAGTGCAG,4820 fluorescence intensity (a.u.)
4,GACATGAATCACGTTGACTGCACAATTTATTTCTTTGTTCCGGAGTCACCTAGTGCAG,7350 fluorescence intensity (a.u.)
5,AAGTACATTGATTAACACATATTCTACCAGTTTATATTGACGGAGTCACCTAGTGCAG,23700 fluorescence intensity (a.u.)
6,ATATATATATATATATATATATATATATATATATATGTGGCGGAGTCACCTAGTGCAG,13800 fluorescence intensity (a.u.)
7,GTCTTCTGTTCTCAATTATCAATTTTGCTATAGCTCACTCCGGAGTCACCTAGTGCAG,10500 fluorescence intensity (a.u.)
8,CAATATTCAATTATGGATTTAATTAACTAATTTAATGTTACGGAGTCACCTAGTGCAG,32700 fluorescence intensity (a.u.)
9,CCCATCATTTTGTTCTTGACAGATATACAAATAAGATGAGCGGAGTCACCTAGTGCAG,7430 fluorescence intensity (a.u.)
10,TCTTAAATTTACACATCTAAAGTTTATACACCTAGAGTTTCGGAGTCACCTAGTGCAG,10400 fluorescence intensity (a.u.)
11,CACTGACGAGAGATTTGAAATGCTAGATCAAACTCATCGACGGAGTCACCTAGTGCAG,8480 fluorescence intensity (a.u.)
12,CATAGATTATTATATTACGAGACGGATGGAGTACATCATCCGGAGTCACCTAGTGCAG,3150 fluorescence intensity (a.u.)
13,TTTGATGGAGTGAAAAGAACAAATTAATAACCATTAAGCCCGGAGTCACCTAGTGCAG,14000 fluorescence intensity (a.u.)
14,GGAGGCTGATTAACCGGTAAGTAGAATCCTACTATTGTATCGGAGTCACCTAGTGCAG,8000 fluorescence intensity (a.u.)
15,AATAATTAACATATATGTGCATGCATGTCTATGTGCACGCCGGAGTCACCTAGTGCAG,31500 fluorescence intensity (a.u.)
16,TTGCTGACTGGAAAGATACTCACTACACACTGCATCTCTACGGAGTCACCTAGTGCAG,7630 fluorescence intensity (a.u.)
17,AATGAATTTAGATAGATATATATGTATAGATTCATTCATACGGAGTCACCTAGTGCAG,4710 fluorescence intensity (a.u.)
18,TCTGTAATCACATCAGTCCTTTCTGTCGCGTAGTACGCCTCGGAGTCACCTAGTGCAG,4130 fluorescence intensity (a.u.)
19,ATTTAATAATGTTGTTAACTTGCCAAAATTTTAGCATTACCGGAGTCACCTAGTGCAG,5980 fluorescence intensity (a.u.)
20,GGGAAATCATTTCCCTAACTCATTAGCCAAACAAGACCTTCGGAGTCACCTAGTGCAG,3570 fluorescence intensity (a.u.)
21,AAAATTTACGTAATTATAATTTATTTTGTTATGAGTTGTTCGGAGTCACCTAGTGCAG,37800 fluorescence intensity (a.u.)

row,Sequence,binding signal
1,AATATTATAATCTAAATTTGTGAGAGATCGAATCACACAACGGAGTCACCTAGTGCAG,3170 fluorescence intensity (a.u.)
2,AATCATTGATTTATATGAGAAGCCGCAAATAACTAGACACCGGAGTCACCTAGTGCAG,27100 fluorescence intensity (a.u.)
3,GATTTAAGTAATTATTAATTCTGTTACTATCATTTGATTCCGGAGTCACCTAGTGCAG,10800 fluorescence intensity (a.u.)
4,CATGATAGACGAAGCTGATCTTTGGAGGCTGGCTAGGGCTCGGAGTCACCTAGTGCAG,30800 fluorescence intensity (a.u.)
5,TTGCAATTAGCCTTTGACTGCTTCTTCTTCTTCCACTTGCCGGAGTCACCTAGTGCAG,16600 fluorescence intensity (a.u.)
6,GCTTCAAATTAGCTTTTGACTTAATAGTACAAAAGTGGCTCGGAGTCACCTAGTGCAG,10500 fluorescence intensity (a.u.)
7,ATATGATTGGCGAGCTATATCTTCTCTTATTGTTTGTGTCCGGAGTCACCTAGTGCAG,51900 fluorescence intensity (a.u.)
8,ACTAGTTTCAATTATTAAATTGATGGCTCTTGCACTGTCACGGAGTCACCTAGTGCAG,21900 fluorescence intensity (a.u.)
9,ATTTGATAGAATACGTGAACTGAATTGAGTGGAGCATGTCCGGAGTCACCTAGTGCAG,20900 fluorescence intensity (a.u.)
10,TTAATTAGACTGACATGTGGGGTCCGCGTGGGTCCCACCACGGAGTCACCTAGTGCAG,20200 fluorescence intensity (a.u.)
11,GATAATATTTAATTTTGTTGACATATTTTACCAGAAAGAACGGAGTCACCTAGTGCAG,7680 fluorescence intensity (a.u.)
12,CCGTGCTTCCACTAACTAATTAATTAATTTTGAACCTCTACGGAGTCACCTAGTGCAG,10600 fluorescence intensity (a.u.)
13,TTAATTAATTAATTAATTAATCAATTAGTATGTATAGTGACGGAGTCACCTAGTGCAG,45500 fluorescence intensity (a.u.)
14,AAAACTAATTACACAGATTGTGTGTAAATTGCGAAACATTCGGAGTCACCTAGTGCAG,22000 fluorescence intensity (a.u.)
15,AAGCATTGATTAGTCAACCTTTTCCAAAGAAAAGCAACATCGGAGTCACCTAGTGCAG,15600 fluorescence intensity (a.u.)
16,AAGGAGAGGATTGAGGAGATTGAGAAGATACGCAAAACGACGGAGTCACCTAGTGCAG,5770 fluorescence intensity (a.u.)
17,ATGGCTGGGTTGATTGATATGGAGTACAAACTAAGTGTAGCGGAGTCACCTAGTGCAG,25000 fluorescence intensity (a.u.)
18,ACTCAGTATACACTAATTAGCAATTATTACCGAAATTGTACGGAGTCACCTAGTGCAG,23400 fluorescence intensity (a.u.)
19,AGATTTAATTGCAACGAATTTAATGGTGCAATCGGATCATCGGAGTCACCTAGTGCAG,24500 fluorescence intensity (a.u.)
20,TGTACATATTAACAGATAGTCTGTGTCCTATACTGAAATGCGGAGTCACCTAGTGCAG,3490 fluorescence intensity (a.u.)
21,TTTGTATTTCTGTCATGATTATGATGGTAGTAAATATGTACGGAGTCACCTAGTGCAG,4510 fluorescence intensity (a.u.)
